# Laboratory results published in PubChem BioAssay AID1347120 (National Center for Advancing Translational Sciences (NCATS), 2019).
# Screen size: about 390,000 compounds; about 930 (0.24%) were called active. This list was built around the results that the source calls inconclusive (neither active nor inactive); the mix of calls is not that of the screen. Calls follow the shape of the dose curve; as a rule, active = well fitted activation curve with a large enough effect; inconclusive = small, poorly fitted or top-dose-only effect; inactive = no such curve, though single readings can be large or run the other way. Potencies beside an inconclusive call are fits to weak or partial responses and may not hold up.
# Experiment: qHTS for Suppressors of FUS Proteinopathy: Primary screen using FUS-linked yeast assay; also: nearly all actives have a fitted effect of over 55% in size;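 as to growth rescue (activation): plate controls were DMSO vehicle for no effect and reference control for full effect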
# Settings: S. cerevisiae FUS-expressing, OD600, 24 h; Potency: growth rescue; growth rescue (activation): at 76.6 µM (top of the series)
# Method in brief: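 Toxicity suppression screen in FUS-yeast. Cells induced with 2% galactose, starting OD 0.005, treated 24hr at 30C with compounds at multiple final concentrations; growth by OD600.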
# Potency is read from the fitted curve at half-maximal effect; tags tell the direction and shape of the fitted curve.
SMILES,Potency,growth rescue (activation)
COc1ccc(OC(C)C(=O)NCc2nc(-c3ccc(Cl)cc3)no2)cc1 (stereo not given),"inconclusive: 31.6 µM [activator, single point]",–
COC(=O)[C@]12C[C@H](CC(=O)N3CCC(c4ccccc4)CC3)C(=O)N(Cc3cccc4ccccc34)C1=C[C@H](C1CCCC1)O[C@@H]2C,"inconclusive: 31.6 µM [activator, partial curve, poor fit]",–
CCN(CC)CCCNC(=O)c1cn(C)c2ccc(S(=O)(=O)N3CCOCC3)cc2c1=O,–,inactive: 11%
Cc1ccc(NC(=O)CSc2nc(C)cc(C)c2C(=O)Nc2cccc(C)c2)cc1,–,inactive: 9.43%
COC(=O)c1c(C)c2c(C)cc3ccccn3c-2c1C(=O)OC,–,inactive: -2.29%
O=C(CCNc1ccc(Cc2ccncc2)cc1)c1ccc([N+](=O)[O-])cc1,"inconclusive: 56.2 µM [activator, single point]",–
COc1cc(OC)cc(C(=O)Nc2ccc(S(=O)(=O)Nc3onc(C)c3C)cc2)c1,–,inactive: 22.1%
COc1cccc(CNC(=O)CN2C(=O)CCn3nc(-c4cn(C)c5ccccc45)cc32)c1OC,–,inactive: -3.11%
O=C(Cc1ccc(Cl)cc1)NCC(c1cccs1)S(=O)(=O)c1ccc(Cl)cc1 (stereo not given),"inconclusive: 44.7 µM [activator, single point]",–
O[C@H]1C[C@H](c2ccc(Cl)cc2)N(Cc2cccs2)C[C@@H]1n1cc(C2CC2)nn1,"inconclusive: 20 µM [activator, single point]",–
C[C@H]1CN([C@@H](C)CO)C(=O)c2cc(/C=C/c3ccccc3)cnc2O[C@H]1CN(C)C(=O)c1cccc(F)c1,"inconclusive: 28.2 µM [activator, partial curve]",–
COc1ccc(C(=O)N/N=C/c2ccc(OC)c(CN3CCc4cc(OC)c(OC)cc4C3C)c2)cc1 (stereo not given),–,inactive: 30.7%
CCCCCCCc1n[nH]c(=S)n1Cc1ccccc1,–,inactive: -2%
CCCCNC(=O)C1C(c2ccc(C(F)(F)F)cc2)=Nc2ccccc2N1C(=O)c1ccc2nc(C)[nH]c2c1 (stereo not given),"inconclusive: 35.5 µM [activator, single point]",–
C=CCn1c(SCC(=O)N2CC(=O)Nc3ccccc32)nc2scc(-c3cccs3)c2c1=O,"inconclusive: 8.91 µM [activator, full curve, poor fit]",–
CCc1cc(-c2nnn(CCC3COCCO3)c2CC)ccc1-c1cn(Cc2ccc3ccccc3c2)nn1 (stereo not given),"inconclusive: 11.2 µM [activator, partial curve]",–
CCOC(=O)c1ccc(N2C(=O)c3n[nH]c(C)c3C2c2ccc(OC)cc2OC)cc1 (stereo not given),"inconclusive: 50.1 µM [activator, single point]",–
CC(C)(C)NS(=O)(=O)c1ccc(C(=O)Nc2ccc3c(c2)OCO3)cc1,–,inactive: -27.6%
NC(=O)c1nsc(C(=O)N(c2ccc3c(c2)OCCO3)C(C(=O)NCC2CCCO2)c2ccc(F)cc2)c1N (stereo not given),"inconclusive: 35.5 µM [activator, single point]",–
O=c1oc2ccccc2c(O)c1Sc1ccc(Cl)cc1,–,inactive: 1.48%
COc1ccc(S(=O)(=O)N(C)C[C@@H]2Oc3c(NC(=O)Nc4ccccc4)cccc3C(=O)N([C@@H](C)CO)C[C@H]2C)cc1,active: 15.8 µM,–
N#Cc1nc(COc2cccc(Cl)c2)oc1NCc1ccco1,–,inactive: -24.4%

SMILES,Potency,growth rescue (activation)
CCC1CN(C(=O)N2CCC(C(=O)N(C)Cc3ccccc3)CC2)c2ccccc2O1 (stereo not given),–,inactive: 32.2%
CC(=O)N(c1ccc(Cl)cc1)c1cn(C(C)=O)c2ccccc12,–,inactive: 12.9%
CCOC(=O)c1cc(-c2ccc(/C=C3/C(=O)N(c4ccc(C(=O)O)cc4)N=C3C)o2)ccc1Cl,–,inactive: 18.2%
Cc1nn(-c2ccccc2)c2sc(C(=O)O)cc12,–,inactive: 15.1%
O=C(c1ccc(F)cc1)N1CCN(c2cc(N3CCCCC3)c(F)cc2[N+](=O)[O-])CC1,"inconclusive: 50.1 µM [activator, single point]",–
CC(=O)c1ccc(N2CCN(S(=O)(=O)c3ccc4[nH]c5c(c4c3)CCCCC5)CC2)cc1,"inconclusive: 28.2 µM [activator, partial curve, poor fit]",–
CC(=O)N1c2ccccc2C(=O)C1N1CCN(c2cc(Cl)ccc2C)CC1 (stereo not given),"inconclusive: 31.6 µM [activator, single point]",–
CNc1oc(-c2ccc(Cl)cc2)nc1P(=O)(c1ccccc1)c1ccccc1,"inconclusive: 28.2 µM [activator, single point]",–
COC(=O)c1ccc(CSc2nnc(-c3ccc4c(c3)OCO4)n2-c2ccccc2)o1,"inconclusive: 3.98 µM [activator, partial curve, poor fit]",–
Cc1cccc(-n2c(SCC(=O)N3CCCC3)nc3n[nH]c(C)c3c2=N)c1,–,inconclusive: 84.4% [activator]
Cc1cc2c(cc(C(=O)N3CCC(C(=O)NC4CCCC4)CC3)n2Cc2c(F)cccc2Cl)o1,–,inactive: -9.98%
CCC(C)NC(=O)c1[nH]c2cc(OC)ccc2c1Sc1ccc(C)cc1 (stereo not given),–,inactive: -9.34%
CCc1c(-c2cccc(OC)c2)ncn1Cc1cccc(-c2ccccc2)c1,"inconclusive: 11.2 µM [activator, partial curve]",–
COc1ccc2c(c1)c1c(c(=O)n(Cc3ccccc3)c(=O)n1Cc1ccc(C)cc1)n2C,–,inactive: 10.1%
Cc1ccc(-n2ncc(C(=O)NCCCN3CCc4ccccc4C3)c2C2CCN(C(=O)OC(C)(C)C)CC2)cc1C,"inconclusive: 31.6 µM [activator, partial curve, poor fit]",–
CC1(c2ccc(C#N)cc2)NC(=O)N(CC(=O)Nc2cc(S(=O)(=O)N3CCOCC3)ccc2Cl)C1=O (stereo not given),"inconclusive: 28.2 µM [activator, single point]",–
COc1cc2c(C(=O)N3CCN(c4ccccc4)CC3)c(C)oc2cc1Br,–,inactive: 12.2%
CC1(C(=O)Nc2cccc(NS(C)(=O)=O)c2)Cc2c(-c3ccc(C(N)=O)cc3)ccnc2O1 (stereo not given),"inconclusive: 31.6 µM [activator, single point]",–
CC(C)c1ccc(NC(=O)CSC2=Nc3ccccc3C3=NC(CC(=O)NC4CCCCC4)C(=O)N23)cc1 (stereo not given),active: 31.6 µM,–
CC1SC(=S)N(c2ccc(N(C)C)cc2)C1=O (stereo not given),"inconclusive: 1 µM [activator, full curve, poor fit]",–
COC(=O)[C@@]12C[C@@H](CC(=O)N3CCC(c4ccccc4)CC3)C(=O)N(Cc3cccc4ccccc34)C1=CCC(C)(C)C2,"inconclusive: 20 µM [activator, single point]",–
CCCCNC(=O)C[C@H]1C[C@@]2(C(=O)OC)C(=C[C@H](C(C)C)O[C@@H]2C2CC2)N(CCc2ccc(OC)c(OC)c2)C1=O,–,inactive: 36.8%

SMILES,Potency,growth rescue (activation)
O=C1/C(=C/c2ccncc2)Oc2cc(OS(=O)(=O)c3ccccc3)ccc21,–,inactive: 23.3%
Cc1ccc(OCC(=O)NCCCNC(=O)c2cnccn2)cc1C,–,inactive: 15.3%
COc1ccc(-c2c(-c3ccccc3OC)sc3ccccc23)cc1,–,inactive: -13%
Cc1cccc(-n2c(O)c(C=Nc3ccccc3N)c(=O)[nH]c2=O)c1,"inconclusive: 50.1 µM [activator, single point]",–
COc1ccnc(CS(=O)c2nc3cc(C(O)(F)F)ccc3[nH]2)c1OC (stereo not given),"inconclusive: 12.6 µM [activator, partial curve, poor fit]",–
CCNC(=O)C(=O)Nc1ccc2c(c1)N(S(=O)(=O)c1cccs1)CCC2,–,inactive: 22.4%
CCCCOc1ccc(C(=O)N/C(=C/C=C/c2ccccc2)C(=O)N2CCOCC2)cc1,"inconclusive: 35.5 µM [activator, single point]",–
CC1(C(=O)NCc2ccc(F)c(F)c2)Cc2c(-c3ccccc3)ccnc2O1 (stereo not given),–,inactive: 39.7%
Cc1ccc(N2C(=O)CSC23C(=O)N(CC(=O)Nc2ccccc2F)c2ccccc23)cc1C (stereo not given),–,inactive: -7.7%
CC(=NNC(=O)c1ccncc1)c1ccccc1Cl,"inconclusive: 22.4 µM [activator, partial curve, poor fit]",–
CCOc1ccccc1NC(=S)/C(=C(\[O-])c1ccc2c(c1)OCCO2)[n+]1ccc(CC)cc1,"inconclusive: 39.8 µM [activator, partial curve, poor fit]",–
O=C(CSCC(=O)N1CCOCC1)Nc1nc(-c2ccccc2)cs1,–,inactive: 0.468%
O=C(C[C@H]1C/C=C\C[C@H](NC(=O)OCC2c3ccccc3-c3ccccc32)C(=O)OC[C@@H]2CCCN2C1=O)N[C@H](CO)Cc1ccccc1,"inconclusive: 35.5 µM [activator, single point]",–
NNc1nc(-c2ccccc2)cc(-c2ccccc2O)n1,"inconclusive: 6.31 µM [activator, full curve]",–
CCCSc1ncc(Cl)c(C(=O)N2CCN(c3ccc(OC)cc3)CC2)n1,"inconclusive: 25.1 µM [activator, single point]",–
CC(C)(C)NC(=O)C(c1ccc(-c2ccccc2)cc1)N(C[C@H]1CC[C@@H]([C@@H]2CC[C@H](CO)O2)O1)C(=O)c1cccc(Cl)c1 (stereo not given in full),"inconclusive: 28.2 µM [activator, single point]",–
Cc1c(C)n(Cc2ccc(F)cc2)c2ccc(C(=O)N3CCN(c4ccccn4)CC3)cc12,"inconclusive: 15.8 µM [activator, partial curve]",–
Cc1cccc(NC(=O)c2cc(-c3cc(C)ccc3O)n[nH]2)c1,–,inactive: 27.4%
O=C(NCc1ccc(Cl)cc1Cl)c1cccc(N2CCCS2(=O)=O)c1,–,inactive: 0.383%
CC1CC(N(C(=O)c2ccco2)c2ccccc2)c2ccccc2N1C(=O)c1ccco1 (stereo not given),"inconclusive: 56.2 µM [activator, partial curve, poor fit]",–
Cc1c(Cl)ccc2sc(N3CCN(C(=O)CS(=O)(=O)c4ccccc4)CC3)nc12,"inconclusive: 28.2 µM [activator, single point]",–
